This is one part of the list.
How the values were obtained:
Experiment in all cases: glycan array binding signal (z-score within array); higher = stronger binding
Details in all cases: glycan notation: IUPAC condensed, linker removed
Kdn(a2-3)Gal(b1-3)GalNAc = molecular target: Kdn(a2-3)Gal(b1-3)GalNAc
How it was run: (§1)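 Glycan array data came from 3228 arrays in the Consortium for Functional Glycomics database, and only arrays with an available protein sequence were kept. Glycan names were put into IUPAC-condensed notation, and columns mapping to the same glycan were averaged. The binding signal is a within-array Z-score, averaged across arrays of one protein sequence run at different concentrations or buffers and across linkers. A negative Z-score can be read as non-binding.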

Kdn(a2-3)Gal(b1-3)GlcNAc = molecular target: Kdn(a2-3)Gal(b1-3)GlcNAc
How it was run: as §1

Kdn(a2-3)Gal(b1-4)Glc = molecular target: Kdn(a2-3)Gal(b1-4)Glc
How it was run: as §1

Kdn(a2-3)Gal(b1-4)GlcNAc = molecular target: Kdn(a2-3)Gal(b1-4)GlcNAc
How it was run: as §1

[1] = molecular target: Kdn(a2-3)Gal(b1-4)[Fuc(a1-3)]GlcNAc
How it was run: as §1

Kdn(a2-6)Gal(b1-4)GlcNAc = molecular target: Kdn(a2-6)Gal(b1-4)GlcNAc
How it was run: as §1

[2] = molecular target: Man(a1-2)Man(a1-2)Man(a1-3)Man
How it was run: as §1

[3] = molecular target: Man(a1-2)Man(a1-2)Man(a1-6)[Man(a1-3)]Man
How it was run: as §1

Man(a1-2)Man(a1-3)Man = molecular target: Man(a1-2)Man(a1-3)Man
How it was run: as §1

[4] = molecular target: Man(a1-2)Man(a1-3)[Man(a1-2)Man(a1-6)]Man
How it was run: as §1

[5] = molecular target: Man(a1-2)Man(a1-3)[Man(a1-2)Man(a1-6)]Man(a1-6)[Man(a1-2)Man(a1-2)Man(a1-3)]Man
How it was run: as §1

[6] = molecular target: Man(a1-2)Man(a1-3)[Man(a1-2)Man(a1-6)]Man(a1-6)[Man(a1-2)Man(a1-2)Man(a1-3)]Man(b1-4)GlcNAc(b1-4)GlcNAc
How it was run: as §1

[7] = molecular target: Man(a1-2)Man(a1-3)[Man(a1-2)Man(a1-6)]Man(a1-6)[Man(a1-3)[Man(a1-6)]Man(a1-6)]Man(b1-4)GlcNAc(b1-4)GlcNAc
How it was run: as §1

[8] = molecular target: Man(a1-2)Man(a1-3)[Man(a1-6)]Man(a1-6)[Man(a1-2)Man(a1-3)]Man(b1-4)GlcNAc(b1-4)GlcNAc
How it was run: as §1

[9] = molecular target: Man(a1-2)Man(a1-6)[Man(a1-3)]Man(a1-6)[Man(a1-2)Man(a1-2)Man(a1-3)]Man
How it was run: as §1

[10] = molecular target: Man(a1-2)Man(a1-6)[Man(a1-3)]Man(a1-6)[Man(a1-2)Man(a1-2)Man(a1-3)]Man(b1-4)GlcNAc(b1-4)GlcNAc
How it was run: as §1

Man(a1-3)[Man(a1-6)]Man = molecular target: Man(a1-3)[Man(a1-6)]Man
How it was run: as §1

[11] = molecular target: Man(a1-3)[Man(a1-6)]Man(a1-6)[Man(a1-2)Man(a1-3)]Man(b1-4)GlcNAc(b1-4)GlcNAc
How it was run: as §1

[12] = molecular target: Man(a1-3)[Man(a1-6)]Man(a1-6)[Man(a1-3)]Man
How it was run: as §1

[13] = molecular target: Man(a1-3)[Man(a1-6)]Man(a1-6)[Man(a1-3)]Man(b1-4)GlcNAc(b1-4)GlcNAc
How it was run: as §1

[14] = molecular target: Man(a1-3)[Man(a1-6)]Man(b1-4)GlcNAc(b1-4)GlcNAc
How it was run: as §1

[15] = molecular target: Man(a1-3)[Man(a1-6)]Man(b1-4)GlcNAc(b1-4)[Fuc(a1-6)]GlcNAc
How it was run: as §1

Man(a1-6)Man = molecular target: Man(a1-6)Man
How it was run: as §1

Man(b1-4)GlcNAc = molecular target: Man(b1-4)GlcNAc
How it was run: as §1

MurNAc(b1-4)GlcNAc = molecular target: MurNAc(b1-4)GlcNAc
How it was run: as §1

Neu5Ac(a2-3)Gal = molecular target: Neu5Ac(a2-3)Gal
How it was run: as §1

[16] = molecular target: Neu5Ac(a2-3)Gal(b1-3)GalNAc
How it was run: as §1

[17] = molecular target: Neu5Ac(a2-3)Gal(b1-3)GalNAc(b1-3)Gal(a1-4)Gal(b1-4)Glc
How it was run: as §1

[18] = molecular target: Neu5Ac(a2-3)Gal(b1-3)GalNAc(b1-3)Gal(b1-4)GlcNAc
How it was run: as §1

[19] = molecular target: Neu5Ac(a2-3)Gal(b1-3)GalNAc(b1-4)[Neu5Ac(a2-3)]Gal(b1-4)Glc
How it was run: as §1

[20] = molecular target: Neu5Ac(a2-3)Gal(b1-3)GalNAc(b1-4)[Neu5Ac(a2-8)Neu5Ac(a2-3)]Gal(b1-4)Glc
How it was run: as §1

[21] = molecular target: Neu5Ac(a2-3)Gal(b1-3)GalNAc6S
How it was run: as §1

[22] = molecular target: Neu5Ac(a2-3)Gal(b1-3)GlcNAc
How it was run: as §1

[23] = molecular target: Neu5Ac(a2-3)Gal(b1-3)GlcNAc(b1-2)Man
How it was run: as §1

[24] = molecular target: Neu5Ac(a2-3)Gal(b1-3)GlcNAc(b1-2)Man(a1-3)[GlcNAc(b1-4)][Neu5Ac(a2-3)Gal(b1-3)GlcNAc(b1-2)Man(a1-6)]Man(b1-4)GlcNAc(b1-4)GlcNAc
How it was run: as §1

[25] = molecular target: Neu5Ac(a2-3)Gal(b1-3)GlcNAc(b1-2)Man(a1-3)[Neu5Ac(a2-3)Gal(b1-3)GlcNAc(b1-2)Man(a1-6)]Man(b1-4)GlcNAc(b1-4)GlcNAc
How it was run: as §1

[26] = molecular target: Neu5Ac(a2-3)Gal(b1-3)GlcNAc(b1-3)Gal(b1-3)GlcNAc
How it was run: as §1

B1: AMA (Arum maculatun) (protein)
chain: MAKLLLLLLLPAIVGLAVPRSAAAVGSNYMLSGETLNTDGRLTNGELTLIMQVDCNLVLYHGGWQSNTANNGRDCKLTLTDFGELVIKSGTGSTVWSSGSKQSMKGNYAAVVHPEGRLVIYGPSVFKINPSGAGLNGLPLRNIPLTNNMLFSGQVLYGDGTLSARNHKLVMQGDCNMVLYGGKYGWQSNTHGNGKYCFAMLTHKGELVIRDDDFKSVWSSKSSSKQGDYVFILQDDSLAIIYGPAVFSTGSKKMISMVTN
Question: With B1 as the binder, how does the “glycan array binding signal (z-score)” value (Kdn(a2-3)Gal(b1-3)GalNAc) read?
Answer: -0.207

Question: And the “glycan array binding signal (z-score)” value (Kdn(a2-3)Gal(b1-3)GlcNAc)?
Answer: -0.221

Question: What about the “glycan array binding signal (z-score)” value (Kdn(a2-3)Gal(b1-4)Glc) of the same binder?
Answer: -0.209

Question: And the “glycan array binding signal (z-score)” value (Kdn(a2-3)Gal(b1-4)GlcNAc)?
Answer: -0.213

Question: What about the “glycan array binding signal (z-score)” value [1] of the same binder?
Answer: -0.207

Question: And the “glycan array binding signal (z-score)” value (Kdn(a2-6)Gal(b1-4)GlcNAc)?
Answer: -0.207

Question: What about the “glycan array binding signal (z-score)” value [2] of the same binder?
Answer: -0.21

Question: And the “glycan array binding signal (z-score)” value [3]?
Answer: -0.208

Question: And the “glycan array binding signal (z-score)” value (Man(a1-2)Man(a1-3)Man)?
Answer: -0.211

Question: And the “glycan array binding signal (z-score)” value [4]?
Answer: -0.221

Question: What about the “glycan array binding signal (z-score)” value [5] of the same binder?
Answer: -0.215

Question: And the “glycan array binding signal (z-score)” value [6]?
Answer: 1.48

Question: What about the “glycan array binding signal (z-score)” value [7] of the same binder?
Answer: 3.87

Question: What about the “glycan array binding signal (z-score)” value [8] of the same binder?
Answer: 3.3

Question: What about the “glycan array binding signal (z-score)” value [9] of the same binder?
Answer: -0.213

Question: What about the “glycan array binding signal (z-score)” value [10] of the same binder?
Answer: 4.91

Question: What about the “glycan array binding signal (z-score)” value (Man(a1-3)[Man(a1-6)]Man) of the same binder?
Answer: -0.207

Question: And the “glycan array binding signal (z-score)” value [11]?
Answer: 8.56

Question: And the “glycan array binding signal (z-score)” value [12]?
Answer: -0.2

Question: And the “glycan array binding signal (z-score)” value [13]?
Answer: 4.09

Question: What about the “glycan array binding signal (z-score)” value [14] of the same binder?
Answer: 3.64

Question: What about the “glycan array binding signal (z-score)” value [15] of the same binder?
Answer: 2.59

Question: And the “glycan array binding signal (z-score)” value (Man(a1-6)Man)?
Answer: -0.197

Question: And the “glycan array binding signal (z-score)” value (Man(b1-4)GlcNAc)?
Answer: -0.219

Question: What about the “glycan array binding signal (z-score)” value (MurNAc(b1-4)GlcNAc) of the same binder?
Answer: -0.219

Question: And the “glycan array binding signal (z-score)” value (Neu5Ac(a2-3)Gal)?
Answer: -0.213

Question: And the “glycan array binding signal (z-score)” value [16]?
Answer: -0.22

Question: And the “glycan array binding signal (z-score)” value [17]?
Answer: -0.213

Question: And the “glycan array binding signal (z-score)” value [18]?
Answer: -0.236

Question: And the “glycan array binding signal (z-score)” value [19]?
Answer: -0.22

Question: And the “glycan array binding signal (z-score)” value [20]?
Answer: -0.209

Question: And the “glycan array binding signal (z-score)” value [21]?
Answer: -0.212

Question: And the “glycan array binding signal (z-score)” value [22]?
Answer: -0.195

Question: What about the “glycan array binding signal (z-score)” value [23] of the same binder?
Answer: -0.125

Question: And the “glycan array binding signal (z-score)” value [24]?
Answer: -0.21

Question: What about the “glycan array binding signal (z-score)” value [25] of the same binder?
Answer: -0.217

Question: And the “glycan array binding signal (z-score)” value [26]?
Answer: -0.204
